Experimental data taken from a collection of fitness landscapes (doi:10.1016/j.celrep.2020.107928).
Whole data set: some 81,000 sequences, median “one-hybrid fitness for binding NBS DNA” near -0.1, cut for the highest 2% near 0.36. The list shows a part of the results.

B1: Caulobacter ParB omega fusion; a variant is named by its letters at X, in order, B8GW30 (parent)
chain: MESVVVGEPGMSEGRRGLGRGLSALLGEVDAAPAQAPGEQLGGSREAPIEILQRNPDQPRRTFREEDLEDLSNSIREKGVLQPILVRPSPDTAGEYQIVAGERAWRAAQRAGLKTVPIMVRELDDLAVLEIGIIENVQRADLNVLEEALSYKVLMEKFERTQENIAQTIGKSXSHVANXMRLLXLPDEVQSYLVSGELTAXHARAIAAAADPVALAKQIIEGGLSVRETEALARKAPNLSAGKSKGGRPPRVKDTDTQALESDLSSVLGLDVSIDHRGSTGTLTITYATLEQLDDLCNRLTRGI

Variants of: B1
Test: one-hybrid fitness for binding NBS DNA (the Noc-binding site; scaled: cognate 1, non-cognate 0); higher = stronger binding
Conditions: with NBS DNA site
Method in brief: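 Fitness here means the log change in variant-to-wild-type read ratio between plasmids sequenced before and after selection. That scale was set so cognate equals 1 and non-cognate equals 0. The selection was a bacterial one-hybrid screen of Caulobacter ParB libraries, four specificity codons randomised, in E. coli USO carrying a HIS3 reporter with the site 19 bp from the promoter, grown 48 hours at 37°C on M9-minus-histidine with 0.1 mM IPTG and 5 mM 3-AT.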

Row | Variant | one-hybrid fitness for binding NBS DNA
1 | NRVF | ≤ 0.2
2 | GNSI | ≤ 0.2
3 | EGSV | ≤ 0.2
4 | MRRH | ≤ 0.2
5 | PGDI | ≤ 0.2
6 | QIQL | ≤ 0.2
7 | ETIW | ≤ 0.2
8 | TADG | ≤ 0.2
9 | SVHW | ≤ 0.2
10 | ASSP | ≤ 0.2
11 | YSHS | ≤ 0.2
12 | RKQW | ≤ 0.2
13 | TNPM | ≤ 0.2
14 | WSQF | ≤ 0.2
15 | QQGY | 0.219
16 | RSMT | 0.305
17 | QTCY | 0.28
18 | RSEL | ≤ 0.2
19 | SQRE | ≤ 0.2
20 | KLNT | ≤ 0.2
21 | KAKW | ≤ 0.2
22 | QKEN | ≤ 0.2
23 | DITY | ≤ 0.2
24 | SWCT | ≤ 0.2
25 | IRLR | 0.24
26 | NFFP | ≤ 0.2

Row | Variant | one-hybrid fitness for binding NBS DNA
27 | KHAC | ≤ 0.2
28 | ILNR | ≤ 0.2
29 | SSID | ≤ 0.2
30 | FYRK | ≤ 0.2
31 | TPFE | ≤ 0.2
32 | HYSF | ≤ 0.2
33 | LAWK | ≤ 0.2
34 | GNVR | ≤ 0.2
35 | VPIA | ≤ 0.2
36 | FSEV | ≤ 0.2
37 | GNPW | ≤ 0.2
38 | YLVA | ≤ 0.2
39 | CTIV | ≤ 0.2
40 | NRHN | ≤ 0.2
41 | KTAK | ≤ 0.2
42 | EHSG | ≤ 0.2
43 | DCMC | ≤ 0.2
44 | PNMS | ≤ 0.2
45 | KITR | ≤ 0.2
46 | PINT | ≤ 0.2
47 | TKKG | ≤ 0.2
48 | VIPF | ≤ 0.2
49 | SRQK | ≤ 0.2
50 | PNEV | ≤ 0.2
51 | LDKR | ≤ 0.2
52 | WLSV | ≤ 0.2

Row | Variant | one-hybrid fitness for binding NBS DNA
53 | KFRR | ≤ 0.2
54 | AVFV | ≤ 0.2
55 | TPKH | ≤ 0.2
56 | QKWC | ≤ 0.2
57 | GTIW | ≤ 0.2
58 | KMKT | 0.27
59 | QQFA | 0.201
60 | KFSR | ≤ 0.2
61 | LLTC | ≤ 0.2
62 | DMIG | ≤ 0.2
63 | RMEV | ≤ 0.2
64 | AVTQ | ≤ 0.2
65 | LCMC | ≤ 0.2
66 | GFAC | ≤ 0.2
67 | CLEV | ≤ 0.2
68 | RWWW | ≤ 0.2
69 | YGWY | ≤ 0.2
70 | CQAT | ≤ 0.2
71 | NGLI | ≤ 0.2
72 | KYYN | ≤ 0.2
73 | DASS | ≤ 0.2
74 | PTPL | ≤ 0.2
75 | RSGT | 0.425
76 | GVIT | ≤ 0.2
77 | LFKC | ≤ 0.2
78 | AMYT | ≤ 0.2

Row | Variant | one-hybrid fitness for binding NBS DNA
79 | GYPT | ≤ 0.2
80 | RVHL | ≤ 0.2
81 | AFHM | ≤ 0.2
82 | DEGF | ≤ 0.2
83 | WGKG | ≤ 0.2
84 | TPIG | ≤ 0.2
85 | KRLA | 0.224
86 | TYER | ≤ 0.2
87 | YYLS | ≤ 0.2
88 | NVNS | ≤ 0.2
89 | ALHM | ≤ 0.2
90 | TYYC | ≤ 0.2
91 | YPKP | ≤ 0.2
92 | TVWA | ≤ 0.2
93 | RLMH | ≤ 0.2
94 | KYYS | ≤ 0.2
95 | RPDM | ≤ 0.2
96 | CKAG | ≤ 0.2
97 | CDEF | ≤ 0.2
98 | DYNR | ≤ 0.2
99 | REWN | ≤ 0.2
100 | YWER | ≤ 0.2
101 | RTAK | ≤ 0.2
102 | QKCN | ≤ 0.2
103 | CASW | ≤ 0.2
104 | DPKA | ≤ 0.2

Row | Variant | one-hybrid fitness for binding NBS DNA
105 | PMVE | ≤ 0.2
106 | QNAI | ≤ 0.2
107 | TANC | ≤ 0.2
108 | LFSC | ≤ 0.2
109 | HNGG | ≤ 0.2
110 | PPDM | ≤ 0.2
111 | RTKE | ≤ 0.2
112 | PNLE | ≤ 0.2
113 | HTAS | ≤ 0.2
114 | HHSS | ≤ 0.2
115 | ACRT | ≤ 0.2
116 | AGGL | ≤ 0.2
117 | QKHT | 0.549
118 | SSGM | ≤ 0.2
119 | PEQG | ≤ 0.2
120 | TRSD | ≤ 0.2
121 | KPLS | ≤ 0.2
122 | RGSY | ≤ 0.2
123 | YCKC | ≤ 0.2
124 | MRWG | ≤ 0.2
125 | TYWM | ≤ 0.2
126 | RETR | ≤ 0.2
127 | DCLK | ≤ 0.2
128 | RPWL | ≤ 0.2
129 | DRVL | ≤ 0.2
130 | LRNI | ≤ 0.2

Row | Variant | one-hybrid fitness for binding NBS DNA
131 | GTPE | ≤ 0.2
132 | SLTE | ≤ 0.2
133 | RTWW | ≤ 0.2
134 | QYRQ | 0.435
135 | FGMV | ≤ 0.2
136 | TEPV | ≤ 0.2
137 | QGGR | ≤ 0.2
138 | PCRH | ≤ 0.2
139 | PWTN | ≤ 0.2
140 | TTLA | ≤ 0.2
141 | QPIM | ≤ 0.2
142 | NTCG | ≤ 0.2
143 | SDYR | ≤ 0.2
144 | MLKH | ≤ 0.2
145 | PVNH | ≤ 0.2
146 | QVRQ | 0.203
147 | PHTI | ≤ 0.2
148 | CMWL | ≤ 0.2
149 | LWHL | ≤ 0.2
150 | QSNL | ≤ 0.2
151 | MWHC | ≤ 0.2
152 | PARV | ≤ 0.2
153 | QNTM | ≤ 0.2
